Viability of KB3-1 and Nalm-6 cells after 48 h of drug alone (CellTiter-Glo), 11 doses over about 4.5 log units. % of DMSO wells, lower = more cell loss; AC50 from the fitted curve, lower = more potent. No active / inactive call. Nalm-6 was screened in two runs. AC50 is listed only for well-fitted inhibitory curves. KB3-1 is a HeLa-derived carcinoma line, Nalm-6 a B-cell precursor leukaemia line.
Key:
Nalm-6 [1] = experiment: log AC50 of viability decrease (48 h) (log10 M); higher = less potent
Method: (§1)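 Eleven-dose screen of the NCATS MIPE 3 library on cells without co-treatment; CellTiter-Glo after 48 h. AC50 from the curve fit; only inhibitory curves of the better fit classes are listed.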

KB3-1 [2] = experiment: as above
Method: as §1

Nalm-6 [3] = experiment: viability (% of DMSO control); higher = more viable cells
Method: (§2)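 Eleven-dose screen of the NCATS MIPE 3 library on cells without co-treatment; CellTiter-Glo after 48 h, as % of DMSO wells.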

KB3-1 [4] = experiment: as above
Method: as §2

SMILES | log AC50 of viability decrease (Nalm-6 [1]; run: 1) | log AC50 of viability decrease (Nalm-6 [1]; run: 2) | log AC50 of viability decrease (KB3-1 [2]) | viability (Nalm-6 [3]; run: 1, 0.00078 µM) [%] | viability (Nalm-6 [3]; run: 1, 0.00234 µM) [%] | viability (Nalm-6 [3]; run: 1, 0.00702 µM) [%] | viability (Nalm-6 [3]; run: 1, 0.0211 µM) [%] | viability (Nalm-6 [3]; run: 1, 0.0632 µM) [%] | viability (Nalm-6 [3]; run: 1, 0.19 µM) [%] | viability (Nalm-6 [3]; run: 1, 0.569 µM) [%] | viability (Nalm-6 [3]; run: 1, 1.71 µM) [%] | viability (Nalm-6 [3]; run: 1, 5.12 µM) [%] | viability (Nalm-6 [3]; run: 1, 15.4 µM) [%] | viability (Nalm-6 [3]; run: 1, 46.1 µM) [%] | viability (Nalm-6 [3]; run: 2, 0.00078 µM) [%] | viability (Nalm-6 [3]; run: 2, 0.00234 µM) [%] | viability (Nalm-6 [3]; run: 2, 0.00702 µM) [%] | viability (Nalm-6 [3]; run: 2, 0.0211 µM) [%] | viability (Nalm-6 [3]; run: 2, 0.0632 µM) [%] | viability (Nalm-6 [3]; run: 2, 0.19 µM) [%] | viability (Nalm-6 [3]; run: 2, 0.569 µM) [%] | viability (Nalm-6 [3]; run: 2, 1.71 µM) [%] | viability (Nalm-6 [3]; run: 2, 5.12 µM) [%] | viability (Nalm-6 [3]; run: 2, 15.4 µM) [%] | viability (Nalm-6 [3]; run: 2, 46.1 µM) [%] | viability (KB3-1 [4]; 0.00078 µM) [%] | viability (KB3-1 [4]; 0.00234 µM) [%] | viability (KB3-1 [4]; 0.00702 µM) [%] | viability (KB3-1 [4]; 0.0211 µM) [%] | viability (KB3-1 [4]; 0.0632 µM) [%] | viability (KB3-1 [4]; 0.19 µM) [%] | viability (KB3-1 [4]; 0.569 µM) [%] | viability (KB3-1 [4]; 1.71 µM) [%] | viability (KB3-1 [4]; 5.12 µM) [%] | viability (KB3-1 [4]; 15.4 µM) [%] | viability (KB3-1 [4]; 46.1 µM) [%]
COc1cc2c(Oc3ccc(NC(=O)C4(C(=O)Nc5ccc(F)cc5)CC4)cc3F)ccnc2cc1OCCCN1CCOCC1 [Foretinib] | -5.28 | -4.78 | -4.78 | 126 | 124 | 126 | 131 | 130 | 124 | 118 | 75.6 | 61 | 44.6 | 0.504 | 111 | 110 | 112 | 113 | 112 | 110 | 108 | 89.9 | 80.9 | 60.8 | 1.48 | 106 | 106 | 108 | 106 | 103 | 104 | 105 | 85.9 | 69.2 | 54.2 | 0.323
CC[C@@H](C)[C@H](NC(=O)[C@H](CC1CCCCC1)NC(=O)c1ccno1)C(=O)N1CCC2(CCc3ccccc32)CC1 [GB 83] | -4.93 |  | -4.78 | 116 | 96 | 105 | 107 | 122 | 118 | 112 | 103 | 99.9 | 78.5 | 63.6 | 102 | 105 | 108 | 106 | 111 | 107 | 107 | 103 | 103 | 96.6 | 91.7 | 102 | 99.5 | 102 | 101 | 103 | 98 | 101 | 100 | 95.3 | 82.9 | 68.1
CN(C)C1=C(Br)C=C(C=C1)C\2NC3=C(\C4=C2C(=O)CC(C)(C)C4)C5=CC=CC=C5C=C3 (configuration not stated) [GLS968] | -4.93 | -4.93 | -4.73 | 72.8 | 86 | 94.4 | 95.1 | 95.8 | 104 | 92.4 | 88.1 | 89.3 | 48.7 | 38.5 | 101 | 94.4 | 99 | 96.4 | 101 | 98.7 | 104 | 105 | 96.9 | 56.1 | 40.9 | 97.4 | 98.4 | 98 | 94.3 | 104 | 96.5 | 101 | 95.6 | 95.4 | 75.9 | 29.7
O=C1[C@H](Cc2ccc(O)cc2)N2C(=O)CCN(C(=O)NCc3ccccc3)[C@H]2CN1Cc1cccc2ccccc12 [ICG-001] | -6.08 | -5.18 | -5.63 | 115 | 107 | 113 | 114 | 117 | 92.8 | 74.9 | 44.3 | 36.3 | 29.4 | 12.3 | 109 | 113 | 109 | 114 | 106 | 102 | 97.8 | 66.5 | 57 | 50.2 | 7.99 | 101 | 97.4 | 99.9 | 101 | 95.1 | 103 | 99.4 | 68.6 | 49.3 | 41.8 | 32.9
CCN(c1ccccc1)c1cc(NC)[n+](C)c(C)n1 [ICI-D7288] | -4.83 | -4.73 | -4.73 | 100 | 114 | 106 | 105 | 106 | 94 | 97.6 | 98.4 | 90.2 | 76.5 | 52.3 | 99.4 | 106 | 104 | 106 | 104 | 109 | 106 | 101 | 99.8 | 91.1 | 73.2 | 102 | 107 | 108 | 102 | 105 | 103 | 102 | 102 | 99.6 | 92.1 | 69.6
CCCCc1ccc(NS(=O)(=O)c2ccc(C)c(C(=O)N3CCN(c4cccc(C)c4C)CC3)c2)cc1 [IDH-001] | -4.68 | -4.68 | -4.63 | 84.9 | 89.7 | 104 | 105 | 107 | 102 | 120 | 120 | 109 | 79.6 | 6.04 | 96.5 | 96.1 | 101 | 102 | 113 | 104 | 110 | 102 | 109 | 75.7 | 4.31 | 95.5 | 99.2 | 99 | 101 | 104 | 102 | 103 | 107 | 103 | 88.2 | 6.45
O=C(Nc1cc(C(F)(F)F)cc(C(F)(F)F)c1)c1cc(Cl)ccc1O [IMD-0354] | -6.68 | -6.78 | -7.18 | 104 | 101 | 97.5 | 107 | 83.8 | 59.7 | 7.65 | 4.04 | 1.88 | 1.46 | 0.123 | 106 | 110 | 107 | 109 | 86.9 | 53.8 | 4.73 | 2.35 | 1.33 | 0.398 | 0.679 | 96.2 | 101 | 96.7 | 86.6 | 56.5 | 41.9 | 17.4 | 37.6 | 21.4 | 15.7 | 12.1
Nc1ccc(C(=O)c2cc3c(ccc4ccccc43)[nH]2)cc1 [IPFK2] | -5.83 | -6.13 | -5.93 | 79.7 | 91.4 | 97.6 | 106 | 96.6 | 104 | 83.5 | 48.6 | 20 | 17 | 6.98 | 95.3 | 99.9 | 101 | 107 | 109 | 101 | 66.2 | 24 | 10.7 | 11.1 | 4.86 | 94.5 | 101 | 102 | 95.3 | 99.3 | 96.8 | 68 | 53.1 | 32.7 | 34.3 | 14.3
CC(C)(C)OC(=O)Nc1ccc(-c2cc(C(=O)NCCCCCCC(=O)NO)no2)cc1 [ISOX] | -6.88 | -7.03 | -5.93 | 113 | 113 | 121 | 104 | 84.3 | 45.9 | 3.68 | 2.58 | 2.24 | 1.89 | 2.25 | 112 | 111 | 110 | 89.4 | 68.9 | 36.7 | 6.21 | 2.83 | 2.64 | 1.91 | 3.06 | 103 | 105 | 105 | 99.2 | 91.5 | 85.1 | 61.4 | 46.8 | 30.1 | 25 | 6.13
Cc1cc(/C=c2/sc3nc4ccccc4n3c2=O)c(C)n1-c1ccccc1 [ITX3] | -4.78 | -4.73 | -5.03 | 112 | 120 | 128 | 123 | 129 | 134 | 125 | 119 | 105 | 92.5 | 49.9 | 107 | 111 | 103 | 111 | 106 | 107 | 105 | 102 | 94.8 | 85.3 | 47.2 | 103 | 106 | 107 | 103 | 105 | 109 | 101 | 103 | 98.9 | 77.2 | 72.2
CC(C)(N)C(=O)N[C@H](COCc1ccccc1)C(=O)N1CCC2(CC1)CN([S+](C)(=O)[O-])c1ccccc12 [Ibutamoren mesilate] |  | -4.73 | -5.08 | 77.6 | 87.8 | 101 | 106 | 112 | 100 | 99.9 | 122 | 91.4 | 74.5 | 51.5 | 101 | 104 | 100 | 102 | 98.9 | 104 | 99.6 | 103 | 98 | 85.6 | 55.8 | 98.3 | 96.6 | 95.1 | 97.2 | 95.2 | 91.2 | 98.6 | 102 | 96.8 | 60.9 | 66.4
CC(C)[C@@H](N(CCCN)C(=O)C1=CC=C(C)C=C1)C/2=N/C3=CC(=CC=C3C(=O)N2CC4=CC=CC=C4)Cl [Ispinesib] | -8.53 | -8.43 | -8.28 | 103 | 70.7 | 12.3 | 11.2 | 11.3 | 9.21 | 10.4 | 11.4 | 6.9 | 4.5 | 2.37 | 104 | 94.9 | 9.9 | 8.74 | 9.8 | 7.34 | 6.08 | 7.23 | 5.13 | -0.0347 | 1.43 | 103 | 101 | 38.5 | 27.4 | 22.8 | 32.5 | 24.3 | 24.4 | 16.5 | 15.2 | -0.24
CCC(C)n1ncn(-c2ccc(N3CCN(c4ccc(OC[C@H]5CO[C@](Cn6cncn6)(c6ccc(Cl)cc6Cl)O5)cc4)CC3)cc2)c1=O (some centres not stated) [Itraconazole] | -5.83 | -6.13 | -4.78 | 104 | 105 | 106 | 111 | 104 | 119 | 107 | 47.6 | 25.8 | 9.54 | 12.4 | 101 | 99.8 | 102 | 103 | 105 | 108 | 77.4 | 13.5 | 6.3 | 7.21 | 9.51 | 106 | 111 | 111 | 108 | 109 | 107 | 109 | 101 | 97.9 | 87.8 | 64.9
CC(C)C[C@H](NC(=O)CNC(=O)c1cc(Cl)ccc1Cl)B(O)O [Ixazomib] | -7.83 | -7.73 | -6.93 | 86.1 | 91.1 | 92 | 16.9 | 5.8 | 5.99 | 6.73 | 7.05 | 6.86 | 6.79 | 5.04 | 109 | 117 | 119 | 48 | 11.8 | 5.18 | 5.42 | 5.31 | 5.13 | 5.01 | 4.03 | 103 | 103 | 105 | 96.6 | 70 | 43.1 | 20.2 | 12.5 | 7.63 | 7.31 | 4.4

Source: the supplement of paper PMC4996465
